Here are results for 31 molecules from PMC9911399, “Two distinct binding modes provide the RNA-binding protein RbFox with extraordinary sequence specificity”.

T1: RBFOX1 RRM RbFoxmut (Fox-RRM*) (Homo sapiens, UniProt Q9NWB1 109-208, R118D;E147R;N151S;E152T)
T1 sequence: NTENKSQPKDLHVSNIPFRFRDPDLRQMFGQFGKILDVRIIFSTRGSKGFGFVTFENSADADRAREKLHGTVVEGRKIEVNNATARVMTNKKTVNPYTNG

B1: UCAGAUC (DNA:RNA)
RNA: GGGAGACCGGAAUUCAGAUUGUCCUCAGAUCUUAAAUCCCGUCGUAGCCACCA
DNA 1: CAATCTGAATTCCGGTCTCCC
DNA 2: TGGTGGCTACGACGGGATT
B2: ACCCAUC (DNA:RNA)
RNA: B1 RNA with U25A, A27C, G28C
DNA 1: CAATCTGAATTCCGGTCTCCC
DNA 2: TGGTGGCTACGACGGGATT
B3: GAAUCUU (DNA:RNA)
RNA: B1 RNA with U25G, C26A, G28U, A29C, C31U
DNA 1: CAATCTGAATTCCGGTCTCCC
DNA 2: TGGTGGCTACGACGGGATT
B4: CGCCCGA (DNA:RNA)
RNA: GGGAGACCGGAAUUCAGAUUGUCCCGCCCGAUUAAAUCCCGUCGUAGCCACCA
DNA 1: CAATCTGAATTCCGGTCTCCC
DNA 2: TGGTGGCTACGACGGGATT
B5: AGAGCUU (DNA:RNA)
RNA: B1 RNA with U25A, C26G, A29C, C31U
DNA 1: CAATCTGAATTCCGGTCTCCC
DNA 2: TGGTGGCTACGACGGGATT
B6: GUUCUUC (DNA:RNA)
RNA: B1 RNA with U25G, C26U, A27U, G28C, A29U
DNA 1: CAATCTGAATTCCGGTCTCCC
DNA 2: TGGTGGCTACGACGGGATT
B7: AAUUAAU (DNA:RNA)
RNA: B1 RNA with U25A, C26A, A27U, G28U, U30A, C31U
DNA 1: CAATCTGAATTCCGGTCTCCC
DNA 2: TGGTGGCTACGACGGGATT
B8: GGGGGAG (DNA:RNA)
RNA: B4 RNA with C25G, C27G, C28G, C29G, G30A, A31G
DNA 1: CAATCTGAATTCCGGTCTCCC
DNA 2: TGGTGGCTACGACGGGATT
B9: AAUAUAA (DNA:RNA)
RNA: B4 RNA with C25A, G26A, C27U, C28A, C29U, G30A
DNA 1: CAATCTGAATTCCGGTCTCCC
DNA 2: TGGTGGCTACGACGGGATT
B10: ACGGUUU (DNA:RNA)
RNA: B1 RNA with U25A, A27G, A29U, C31U
DNA 1: CAATCTGAATTCCGGTCTCCC
DNA 2: TGGTGGCTACGACGGGATT
B11: UAGUCGC (DNA:RNA)
RNA: B4 RNA with C25U, G26A, C27G, C28U, A31C
DNA 1: CAATCTGAATTCCGGTCTCCC
DNA 2: TGGTGGCTACGACGGGATT
B12: CACCAUC (DNA:RNA)
RNA: B4 RNA with G26A, C29A, G30U, A31C
DNA 1: CAATCTGAATTCCGGTCTCCC
DNA 2: TGGTGGCTACGACGGGATT
B13: AGCAAAA (DNA:RNA)
RNA: B4 RNA with C25A, C28A, C29A, G30A
DNA 1: CAATCTGAATTCCGGTCTCCC
DNA 2: TGGTGGCTACGACGGGATT
B14: UUCCGUC (DNA:RNA)
RNA: B1 RNA with C26U, A27C, G28C, A29G
DNA 1: CAATCTGAATTCCGGTCTCCC
DNA 2: TGGTGGCTACGACGGGATT
B15: CAUAGUC (DNA:RNA)
RNA: B1 RNA with U25C, C26A, A27U, G28A, A29G
DNA 1: CAATCTGAATTCCGGTCTCCC
DNA 2: TGGTGGCTACGACGGGATT
B16: GUGCACC (DNA:RNA)
RNA: B1 RNA with U25G, C26U, A27G, G28C, U30C
DNA 1: CAATCTGAATTCCGGTCTCCC
DNA 2: TGGTGGCTACGACGGGATT
B17: CCUCCAC (DNA:RNA)
RNA: B4 RNA with G26C, C27U, G30A, A31C
DNA 1: CAATCTGAATTCCGGTCTCCC
DNA 2: TGGTGGCTACGACGGGATT
B18: UAUUUUU (DNA:RNA)
RNA: B1 RNA with C26A, A27U, G28U, A29U, C31U
DNA 1: CAATCTGAATTCCGGTCTCCC
DNA 2: TGGTGGCTACGACGGGATT
B19: UCACUCC (DNA:RNA)
RNA: B1 RNA with G28C, A29U, U30C
DNA 1: CAATCTGAATTCCGGTCTCCC
DNA 2: TGGTGGCTACGACGGGATT
B20: AGGGUAA (DNA:RNA)
RNA: B4 RNA with C25A, C27G, C28G, C29U, G30A
DNA 1: CAATCTGAATTCCGGTCTCCC
DNA 2: TGGTGGCTACGACGGGATT
B21: AUUGGGU (DNA:RNA)
RNA: B4 RNA with C25A, G26U, C27U, C28G, C29G, A31U
DNA 1: CAATCTGAATTCCGGTCTCCC
DNA 2: TGGTGGCTACGACGGGATT
B22: UUCCACC (DNA:RNA)
RNA: B1 RNA with C26U, A27C, G28C, U30C
DNA 1: CAATCTGAATTCCGGTCTCCC
DNA 2: TGGTGGCTACGACGGGATT
B23: GGCGCAG (DNA:RNA)
RNA: B4 RNA with C25G, C28G, G30A, A31G
DNA 1: CAATCTGAATTCCGGTCTCCC
DNA 2: TGGTGGCTACGACGGGATT
B24: UUAGAGC (DNA:RNA)
RNA: B1 RNA with C26U, U30G
DNA 1: CAATCTGAATTCCGGTCTCCC
DNA 2: TGGTGGCTACGACGGGATT
B25: AACGUAG (DNA:RNA)
RNA: B4 RNA with C25A, G26A, C28G, C29U, G30A, A31G
DNA 1: CAATCTGAATTCCGGTCTCCC
DNA 2: TGGTGGCTACGACGGGATT
B26: UAAAGUC (DNA:RNA)
RNA: B1 RNA with C26A, G28A, A29G
DNA 1: CAATCTGAATTCCGGTCTCCC
DNA 2: TGGTGGCTACGACGGGATT
B27: UUGACAU (DNA:RNA)
RNA: B4 RNA with C25U, G26U, C27G, C28A, G30A, A31U
DNA 1: CAATCTGAATTCCGGTCTCCC
DNA 2: TGGTGGCTACGACGGGATT
B28: GCGCGAA (DNA:RNA)
RNA: B4 RNA with C25G, G26C, C27G, C29G, G30A
DNA 1: CAATCTGAATTCCGGTCTCCC
DNA 2: TGGTGGCTACGACGGGATT
B29: CUAUCGA (DNA:RNA)
RNA: B4 RNA with G26U, C27A, C28U
DNA 1: CAATCTGAATTCCGGTCTCCC
DNA 2: TGGTGGCTACGACGGGATT
B30: UGACUAC (DNA:RNA)
RNA: B1 RNA with C26G, G28C, A29U, U30A
DNA 1: CAATCTGAATTCCGGTCTCCC
DNA 2: TGGTGGCTACGACGGGATT
B31: AUCGGAU (DNA:RNA)
RNA: B4 RNA with C25A, G26U, C28G, C29G, G30A, A31U
DNA 1: CAATCTGAATTCCGGTCTCCC
DNA 2: TGGTGGCTACGACGGGATT

Residue numbers refer to the chain shown, from its start. This is one part of the list.

In the assay the target is T1, RBFOX1 RRM RbFoxmut (Fox-RRM*). The experiment in a line: EMSA; HiTS-Eq, 1 nM pool, 10 min; buffer printed only for the single-RNA assays: 10 mM Tris pH 7.5, 150 mM NaCl, 3.4 mM EDTA, 0.001% NP-40, 30 C. Conditions: tags: His6 N-terminal (pET28a); label: 5' 32P. The method, boiled down:
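These values rest on relative association constants, computed from read-count changes of each RNA species versus the control reaction and normalised to the cognate motif. Reads came from free RNA recovered by 8% native PAGE after purified RbFox RRM (wild type or mutant) at increasing concentrations was equilibrated for 10 min in 50 µL with 1 nM of a 5′-radiolabelled pool with 7 randomized nucleotides and DNA-annealed flanks.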
A general note: Mobility shift assays separate free from complexed probe on a gel.
Consider B1, for which the binding signal is 0.0785 KA relative to UGCAUGU.
Then B2, with 0.0621 KA relative to UGCAUGU; and B3, with 0.197 KA relative to UGCAUGU.
Then B4, with 0.0954 KA relative to UGCAUGU; and B5, with 0.0937 KA relative to UGCAUGU; and B6, with 0.0794 KA relative to UGCAUGU.
The same measure for B7: 0.0666 KA relative to UGCAUGU.
For the molecule B8, the binding signal was 0.113 KA relative to UGCAUGU.
The same measure for B9: 0.0784 KA relative to UGCAUGU; for B10: 0.0814 KA relative to UGCAUGU.
Then B11, with 0.0769 KA relative to UGCAUGU.
Regarding B12, the binding signal is 0.0639 KA relative to UGCAUGU.
As for B13, the binding signal is 0.0881 KA relative to UGCAUGU.
The same measure for B14: 0.0766 KA relative to UGCAUGU.
On to B15, for which the binding signal is 0.089 KA relative to UGCAUGU.
The same measure for B16: 0.167 KA relative to UGCAUGU; for B17: 0.0616 KA relative to UGCAUGU.
Consider B18, for which the binding signal was 0.0838 KA relative to UGCAUGU.
On to B19, for which the binding signal is 0.0541 KA relative to UGCAUGU.
Consider B20, for which the binding signal was 0.153 KA relative to UGCAUGU.
As for B21, the binding signal is 0.111 KA relative to UGCAUGU.
The same measure for B22: 0.112 KA relative to UGCAUGU.
As to B23, the binding signal was 0.0989 KA relative to UGCAUGU.
For the molecule B24, the binding signal is 0.0822 KA relative to UGCAUGU.
Then B25, with 0.0975 KA relative to UGCAUGU.
On to B26, for which the binding signal was 0.0419 KA relative to UGCAUGU.
Take B27: the binding signal was 0.0616 KA relative to UGCAUGU.
B28: the binding signal is 0.104 KA relative to UGCAUGU.
The same measure for B29: 0.0597 KA relative to UGCAUGU; for B30: 0.0857 KA relative to UGCAUGU; for B31: 0.0956 KA relative to UGCAUGU.
